According to the supplement of paper PMC8728848:
The list shows a part of the results.

How the values were obtained:
Experiment in all cases: glycan array binding signal (z-score within array); higher = stronger binding
Details in all cases: glycan notation: IUPAC condensed, linker removed
[1] = target: Neu5Ac(a2-3)Gal(b1-3)GalNAc(b1-3)Gal(a1-4)Gal(b1-4)Glc
Outline: (§1)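 Glycan array data came from 3228 arrays in the Consortium for Functional Glycomics database, and only arrays with an available protein sequence were kept. Glycan names were put into IUPAC-condensed notation, and columns mapping to the same glycan were averaged. The binding signal is a within-array Z-score, averaged across arrays of one protein sequence run at different concentrations or buffers and across linkers. A negative Z-score can be read as non-binding.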

[2] = target: Neu5Ac(a2-3)Gal(b1-3)GalNAc(b1-4)[Neu5Ac(a2-3)]Gal(b1-4)Glc
Outline: as §1

[3] = target: Neu5Ac(a2-3)Gal(b1-3)GalNAc6S
Outline: as §1

[4] = target: Neu5Ac(a2-3)Gal(b1-3)GlcNAc
Outline: as §1

[5] = target: Neu5Ac(a2-3)Gal(b1-3)GlcNAc(b1-3)Gal(b1-4)GlcNAc
Outline: as §1

[6] = target: Neu5Ac(a2-3)Gal(b1-3)GlcNAc6S
Outline: as §1

[7] = target: Neu5Ac(a2-3)Gal(b1-3)[Fuc(a1-4)]GlcNAc
Outline: as §1

[8] = target: Neu5Ac(a2-3)Gal(b1-3)[Fuc(a1-4)]GlcNAc(b1-3)Gal(b1-4)[Fuc(a1-3)]GlcNAc
Outline: as §1

[9] = target: Neu5Ac(a2-3)Gal(b1-3)[Neu5Ac(a2-3)Gal(b1-4)]GlcNAc
Outline: as §1

[10] = target: Neu5Ac(a2-3)Gal(b1-3)[Neu5Ac(a2-6)]GalNAc
Outline: as §1

Neu5Ac(a2-3)Gal(b1-4)Glc = target: Neu5Ac(a2-3)Gal(b1-4)Glc
Outline: as §1

[11] = target: Neu5Ac(a2-3)Gal(b1-4)GlcNAc
Outline: as §1

[12] = target: Neu5Ac(a2-3)Gal(b1-4)GlcNAc(b1-3)Gal(b1-4)GlcNAc
Outline: as §1

[13] = target: Neu5Ac(a2-3)Gal(b1-4)GlcNAc(b1-3)Gal(b1-4)GlcNAc(b1-3)Gal(b1-4)GlcNAc
Outline: as §1

[14] = target: Neu5Ac(a2-3)Gal(b1-4)GlcNAc(b1-3)Gal(b1-4)[Fuc(a1-3)]GlcNAc
Outline: as §1

[15] = target: Neu5Ac(a2-3)Gal(b1-4)GlcNAc6S
Outline: as §1

[16] = target: Neu5Ac(a2-3)Gal(b1-4)[Fuc(a1-3)]GlcNAc
Outline: as §1

[17] = target: Neu5Ac(a2-3)Gal(b1-4)[Fuc(a1-3)]GlcNAc(b1-3)Gal
Outline: as §1

[18] = target: Neu5Ac(a2-3)Gal(b1-4)[Fuc(a1-3)]GlcNAc(b1-3)Gal(b1-4)GlcNAc
Outline: as §1

[19] = target: Neu5Ac(a2-3)Gal(b1-4)[Fuc(a1-3)]GlcNAc(b1-3)Gal(b1-4)[Fuc(a1-3)]GlcNAc(b1-3)Gal(b1-4)[Fuc(a1-3)]GlcNAc
Outline: as §1

[20] = target: Neu5Ac(a2-3)Gal(b1-4)[Fuc(a1-3)]GlcNAc6S
Outline: as §1

[21] = target: Neu5Ac(a2-3)Gal6S(b1-4)GlcNAc
Outline: as §1

[22] = target: Neu5Ac(a2-3)Gal6S(b1-4)[Fuc(a1-3)]GlcNAc
Outline: as §1

Neu5Ac(a2-3)GalNAc = target: Neu5Ac(a2-3)GalNAc
Outline: as §1

[23] = target: Neu5Ac(a2-3)GalNAc(b1-4)GlcNAc
Outline: as §1

[24] = target: Neu5Ac(a2-3)[GalNAc(b1-4)]Gal(b1-4)Glc
Outline: as §1

[25] = target: Neu5Ac(a2-3)[GalNAc(b1-4)]Gal(b1-4)GlcNAc
Outline: as §1

[26] = target: Neu5Ac(a2-3)[Neu5Ac(a2-6)]GalNAc
Outline: as §1

[27] = target: Neu5Ac(a2-6)Gal(b1-4)GlcNAc
Outline: as §1

[28] = target: Neu5Ac(a2-6)Gal(b1-4)GlcNAc(b1-2)Man(a1-3)[Neu5Ac(a2-6)Gal(b1-4)GlcNAc(b1-2)Man(a1-6)]Man(b1-4)GlcNAc(b1-4)GlcNAc
Outline: as §1

[29] = target: Neu5Ac(a2-6)Gal(b1-4)GlcNAc(b1-3)Gal(b1-4)GlcNAc
Outline: as §1

[30] = target: Neu5Ac(a2-6)Gal(b1-4)GlcNAc(b1-3)Gal(b1-4)[Fuc(a1-3)]GlcNAc(b1-3)Gal(b1-4)[Fuc(a1-3)]GlcNAc
Outline: as §1

[31] = target: Neu5Ac(a2-6)Gal(b1-4)GlcNAc6S
Outline: as §1

Neu5Ac(a2-6)GalNAc = target: Neu5Ac(a2-6)GalNAc
Outline: as §1

[32] = target: Neu5Ac(a2-6)GalNAc(b1-4)GlcNAc
Outline: as §1

Neu5Ac(a2-8)Neu5Ac = target: Neu5Ac(a2-8)Neu5Ac
Outline: as §1

[33] = target: Neu5Ac(a2-8)Neu5Ac(a2-3)Gal(b1-4)Glc
Outline: as §1

[34] = target: Neu5Ac(a2-8)Neu5Ac(a2-3)[GalNAc(b1-4)]Gal(b1-4)Glc
Outline: as §1

[35] = target: Neu5Ac(a2-8)Neu5Ac(a2-8)Neu5Ac
Outline: as §1

[36] = target: Neu5Ac(a2-8)Neu5Ac(a2-8)Neu5Ac(a2-3)Gal(b1-4)Glc
Outline: as §1

[37] = target: Neu5Ac(a2-8)Neu5Ac(a2-8)Neu5Ac(a2-3)[GalNAc(b1-4)]Gal(b1-4)Glc
Outline: as §1

[38] = target: Neu5Ac(a2-8)Neu5Ac(a2-8)Neu5Ac(a2-8)Neu5Ac(a2-3)[GalNAc(b1-4)]Gal(b1-4)Glc
Outline: as §1

[39] = target: Neu5Ac9Ac(a2-6)Gal(b1-4)GlcNAc
Outline: as §1

[40] = target: Neu5Gc(a2-3)Gal(b1-3)GlcNAc
Outline: as §1

[41] = target: Neu5Gc(a2-3)Gal(b1-3)[Fuc(a1-4)]GlcNAc
Outline: as §1

Neu5Gc(a2-3)Gal(b1-4)Glc = target: Neu5Gc(a2-3)Gal(b1-4)Glc
Outline: as §1

[42] = target: Neu5Gc(a2-3)Gal(b1-4)GlcNAc
Outline: as §1

[43] = target: Neu5Gc(a2-3)Gal(b1-4)[Fuc(a1-4)]GlcNAc
Outline: as §1

[44] = target: Neu5Gc(a2-6)Gal(b1-4)GlcNAc
Outline: as §1

Neu5Gc(a2-6)GalNAc = target: Neu5Gc(a2-6)GalNAc
Outline: as §1

B1: ASA (Allium sativum) (protein)
chain: KAHEKERMGRNTPSAKLMSIAAVAAILTILASTCMARNLLTNGEGLYAGQSLNVEPYHFIMQEDCNLVLYDHSTAVWATNTDIPGKKECRAVLQSDGNFVVYDADGRPLWASHSVRGNGNYVLVLQEDGNVVIYGSDIWSTGTYVKAARGPVVVAMNGTVDGGSLIRPVIVNKNHVPVIRKVGTLSRNILRNDEGLYAGQSLDVEPYHFIMHEDCNLVLYDHSTAVWASNTDIPGKKGCKAVLQSDGNFVVYDAEGRSLWASHSVRGNGNYVLVLQEDGNVVIYGSDIWSTDTYRKSARGPVIRKVGTLAGAA
What does the source list for B1?
glycan array binding signal (z-score) [1]: -0.228; glycan array binding signal (z-score) [2]: -0.11; glycan array binding signal (z-score) [3]: -0.226; glycan array binding signal (z-score) [4]: -0.223; glycan array binding signal (z-score) [5]: -0.215; glycan array binding signal (z-score) [6]: -0.222; glycan array binding signal (z-score) [7]: -0.235; glycan array binding signal (z-score) [8]: 0.083; glycan array binding signal (z-score) [9]: -0.226; glycan array binding signal (z-score) [10]: -0.235; glycan array binding signal (z-score) (Neu5Ac(a2-3)Gal(b1-4)Glc): -0.221; glycan array binding signal (z-score) [11]: -0.207; glycan array binding signal (z-score) [12]: -0.227; glycan array binding signal (z-score) [13]: 0.046; glycan array binding signal (z-score) [14]: -0.243; glycan array binding signal (z-score) [15]: -0.176; glycan array binding signal (z-score) [16]: -0.201; glycan array binding signal (z-score) [17]: -0.222; glycan array binding signal (z-score) [18]: -0.107; glycan array binding signal (z-score) [19]: -0.112; glycan array binding signal (z-score) [20]: -0.22; glycan array binding signal (z-score) [21]: -0.196; glycan array binding signal (z-score) [22]: -0.205; glycan array binding signal (z-score) (Neu5Ac(a2-3)GalNAc): -0.209; glycan array binding signal (z-score) [23]: -0.107; glycan array binding signal (z-score) [24]: -0.231; glycan array binding signal (z-score) [25]: -0.172; glycan array binding signal (z-score) [26]: -0.232; glycan array binding signal (z-score) [27]: -0.217; glycan array binding signal (z-score) [28]: -0.184; glycan array binding signal (z-score) [29]: -0.226; glycan array binding signal (z-score) [30]: 0.134; glycan array binding signal (z-score) [31]: -0.233; glycan array binding signal (z-score) (Neu5Ac(a2-6)GalNAc): -0.232; glycan array binding signal (z-score) [32]: -0.207; glycan array binding signal (z-score) (Neu5Ac(a2-8)Neu5Ac): -0.227; glycan array binding signal (z-score) [33]: -0.228; glycan array binding signal (z-score) [34]: -0.231; glycan array binding signal (z-score) [35]: -0.206; glycan array binding signal (z-score) [36]: -0.226; glycan array binding signal (z-score) [37]: -0.196; glycan array binding signal (z-score) [38]: -0.173; glycan array binding signal (z-score) [39]: -0.224; glycan array binding signal (z-score) [40]: -0.198; glycan array binding signal (z-score) [41]: -0.192; glycan array binding signal (z-score) (Neu5Gc(a2-3)Gal(b1-4)Glc): -0.208; glycan array binding signal (z-score) [42]: -0.217; glycan array binding signal (z-score) [43]: -0.216; glycan array binding signal (z-score) [44]: -0.239; glycan array binding signal (z-score) (Neu5Gc(a2-6)GalNAc): -0.15
